# Assay results published in PubChem BioAssay AID1745845 (National Center for Advancing Translational Sciences (NCATS), 2022).
# Values joined by “and” are separate entries in the source; they are usually repeats but may differ in a detail not shown here. Identical values can stand only once. Out of some 360,000 compounds screened, about 2,600 (0.72%) were called active. Inconclusive means that the source gave no clear call. Such entries were picked first, then a sample of the others. Calls follow the shape of the dose curve; as a rule, active = well fitted inhibition curve with a large enough effect; inconclusive = small, poorly fitted or top-dose-only effect; inactive = no such curve, though single readings can be large or run the other way. Potencies of inconclusive entries are doubtful fits and often do not repeat.
# Assay: Primary qHTS for Inhibitors of ATXN expression; also: nearly all actives have a fitted effect of over 55% in size
# Conditions: HEK-293 ATXN2-luciferase reporter, luminescence, 24 h; activity change, negative = inhibition: at 57 µM (top of the series)
# Procedure, shortened: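 qHTS (up to 57 uM final) was run with 24 h compound exposure of reporter cells at 37 °C. Each well was multiplexed: SteadyGlo luminescence measured ATXN2-luciferase expression after a fluorogenic Gly-Phe-AFC viability readout (25 uM final).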
# % is scaled to controls: 0 for no effect and ±100 for the full control effect; potency is read from the fitted curve at half-maximal effect; tags tell the direction and shape of the fitted curve.
SMILES,Potency,"activity change, negative = inhibition"
CCCNS(=O)(=O)c1ccc2nc(NC(=O)c3ccc(F)cc3)sc2c1,"inconclusive: 39.8 µM [inhibitor, single point]",
COc1cc(C(=O)OCc2cc(=O)n3nc(C4CCCCC4)sc3n2)cc(OC)c1OC,,inactive: 8.16%
O=C(NCCN1CCN(Cc2ccccc2)CC1)c1cc2c(=O)[nH]c3ccccc3c2s1,"inconclusive: 39.8 µM [inhibitor, single point]",
CN(C)S(=O)(=O)c1ccc(C(=O)OCc2nnc(-c3ccccc3)o2)cc1,,inactive: -12.6%
CCOc1cc2c(c(F)c1OCC)C(=N)N(CC(=O)c1cc(N3CCOCC3)c(OC)c(C(C)(C)C)c1)C2,"inconclusive: 34.3 µM [inhibitor, single point]",
CC(C)(C)c1ccc(C(=O)Nc2ccc3c(c2)CCCN3C(=O)c2cccs2)cc1,"inconclusive: 39.8 µM [inhibitor, single point]",
COC(=O)c1ccc2c(=O)n(CCCCCC(=O)N3CCN(c4ccc(F)cc4)CC3)c(=O)[nH]c2c1,"inconclusive: 28.2 µM [inhibitor, partial curve, poor fit]",
COc1cc(/C=C2\CC/C(=C\c3cc(OC)c(O)c(OC)c3)C2=O)cc(OC)c1O,"inconclusive: 39.8 µM [inhibitor, single point]",
CC(NCc1ccccc1Cl)C(=O)Nc1ccc(S(=O)(=O)N2CCCC2)cc1 (stereo unspecified),,inactive: 6.91%
CCCCNc1c(-c2ccc(OC)c(SC3CCCCC3)c2)nc2cc(C)ccn12,"inconclusive: 39.8 µM [inhibitor, single point]",
CC(=O)Nc1cc(-c2ccccc2)ccc1O,,inactive: -26.5%
CCOc1ccc(CN2CCN(C(=O)c3cccc4ccccc34)CC2)cc1,"inconclusive: 7.08 µM [inhibitor, partial curve]",
CCC(c1nnnn1C(C)(C)CC)N(CCCO)Cc1cc2cc(C)cc(C)c2[nH]c1=O (stereo unspecified),"inconclusive: 39.8 µM [inhibitor, partial curve, poor fit]",
O=C(O)CCSc1nnc(-c2ccc3c(c2)OCO3)o1,"inconclusive: 39.8 µM [inhibitor, single point]",
COc1ccc(OC)c(NC(=S)NCCSc2ccc(C)cc2)c1,,inactive: 17.1%
O=C(CSc1nnc(-c2cc3ccccc3cc2O)n1Cc1ccco1)N1CCc2ccccc2C1,,inactive: 0%
CCN(CC)c1ccc(/C=N/NC(=O)C(O)c2ccccc2)cc1 (stereo unspecified),,inactive: 19.5%
CCOc1ccccc1C(=O)NCC(=O)NCCSc1ccc(Br)cc1,"inconclusive: 25.1 µM [inhibitor, partial curve, poor fit]",
COc1ccc(-c2c(-c3ccc(OC)c(C)c3O)n[nH]c2C)cc1,"inconclusive: 28.2 µM [inhibitor, single point]",
CC(=O)Nc1ccc(NC(=O)C(C)OC(=O)c2ccccc2C(=O)c2ccc(Cl)c([N+](=O)[O-])c2)cc1 (stereo unspecified),"inconclusive: 39.8 µM [inhibitor, single point]",
C[C@@H]1COC(Nc2ccc3ncnc(Nc4ccc(OCc5nccs5)c(Cl)c4)c3c2)=N1,"inconclusive: 30.6 µM [inhibitor, single point]",

SMILES,Potency,"activity change, negative = inhibition"
Cc1sc(NC(=O)COc2cccc(-n3cnnn3)c2)c(C#N)c1C,"inconclusive: 31.6 µM [inhibitor, single point]",
CCOc1ccc(-c2nnn(CC(=O)NCc3ccc(C)cc3)n2)cc1,,inactive: 11.7%
Cc1cc(C(=O)N2CCCC(C(=O)c3cccc(C(F)(F)F)c3)C2)n[nH]1 (stereo unspecified),,inactive: 0.952%
CNC(=O)C1CCC(Cn2c(=O)c3sccc3n(CC(=O)Nc3ccc(C)c(C)c3)c2=O)CC1 (stereo unspecified),"inconclusive: 20 µM [inhibitor, partial curve, poor fit]",
COC(=O)[C@@]12CCCCN1[C@H](c1ccc(-c3ccc(F)cc3)cc1)[C@@H]1C(=O)N(C)C(=O)[C@@H]12,"inconclusive: 39.8 µM [inhibitor, single point]",
COc1ccc(-c2nnc(SCC(=O)N(Cc3ccccc3)C(C)(C)C)o2)cc1OC,"inconclusive: 28.2 µM [inhibitor, single point]",
CCCCC(=O)NNC(=S)NC(=O)CCC,,inactive: -36.2%
OC(CN=c1sc2ccccc2n1CC(O)COc1ccccc1)COc1ccccc1 (stereo unspecified),"inconclusive: 35.5 µM [inhibitor, single point]",
Cc1ccccc1CNc1ccc(C(CC(N)=O)NC(=O)c2ccccc2)cc1[N+](=O)[O-] (stereo unspecified),"inconclusive: 31.6 µM [inhibitor, single point]",
O=C(Nc1ncccn1)c1cc([N+](=O)[O-])cc([N+](=O)[O-])c1,,inactive: 1.16%
CCCCC(=O)NNC(=S)NC(=O)c1ccc([N+](=O)[O-])cc1,"inconclusive: 0.0075 µM [inhibitor, full curve, poor fit]",
Cc1nc2ccccc2c(=O)n1-c1ccc(NC(=O)c2cccc([N+](=O)[O-])c2)cc1,"inconclusive: 35.5 µM [inhibitor, single point]",
Cc1cc2c(C(C)C)c(O)c(O)c(C=O)c2c(O)c1-c1c(C)cc2c(C(C)C)c(O)c(O)c(C=O)c2c1O,"inconclusive: 20 µM [inhibitor, partial curve, poor fit] and inconclusive: 30.6 µM [inhibitor, single point]",
OCCNc1nc(NCc2ccccc2)c2ccccc2n1,"inconclusive: 31.6 µM [inhibitor, single point]",
Cc1oc(-c2ccc(C(=O)NCc3ccc(Cl)cc3)cc2)nc1CS(=O)(=O)c1ccccc1,"inconclusive: 10 µM [inhibitor, partial curve, poor fit]",
Cc1nc2cc(C(F)(F)F)ccc2n1C,"inconclusive: 8.44 µM [inhibitor, full curve]",
CCn1cc(C(=O)N2CCCC2)c(=O)c2cc(S(=O)(=O)N3CCC(C)CC3)ccc21,,inactive: 7%
CCOC(=O)N1CCN(C(=O)c2ccc(CSc3ccc(Cl)cc3)cc2)CC1,,inactive: -29.5% [at 11.3 µM]
Fc1ccccc1COc1ccc(Br)cc1CNCc1cccnc1,"inconclusive: 20 µM [inhibitor, single point]",
CC(=O)c1ccc(N2CCN(c3ccnc4cc(Cl)ccc34)CC2)cc1,"inconclusive: 0.794 µM [inhibitor, full curve, poor fit]",
